Series [1] deals with V428 human vaginal epithelial cells.

The values that follow come from patent US20050215634A1 (priority 2003, published 2005).

Regarding `CCCCCCCCCCCC(=O)OCC(O)CO` (centres unmarked) [GML, glycerol monolaurate], in series [1], the “RNA synthesis by epithelial cells” value is listed as “complete inhibition of RNA synthesis”. Besides, the “Toxicity to HVECs” value in the series on HVECs is listed as “Non-Toxic”.
